{"source": "paper PMC4336329", "about": "(PLoS ONE, 2015)", "note": "The whole screen tested about 310,000 compounds, of which about 14,000 (4.5%) showed an effect of 50% or more. The effect is printed as a negative number. Some of the results follow.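 Note: peak tail current of the secondary pulse compared with the same well before compound.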"}
{"target": "human ether-à-go-go-related gene (hERG) potassium channel (human, UniProt Q12809)", "sequence (Q12809 whole entry, looked up)": "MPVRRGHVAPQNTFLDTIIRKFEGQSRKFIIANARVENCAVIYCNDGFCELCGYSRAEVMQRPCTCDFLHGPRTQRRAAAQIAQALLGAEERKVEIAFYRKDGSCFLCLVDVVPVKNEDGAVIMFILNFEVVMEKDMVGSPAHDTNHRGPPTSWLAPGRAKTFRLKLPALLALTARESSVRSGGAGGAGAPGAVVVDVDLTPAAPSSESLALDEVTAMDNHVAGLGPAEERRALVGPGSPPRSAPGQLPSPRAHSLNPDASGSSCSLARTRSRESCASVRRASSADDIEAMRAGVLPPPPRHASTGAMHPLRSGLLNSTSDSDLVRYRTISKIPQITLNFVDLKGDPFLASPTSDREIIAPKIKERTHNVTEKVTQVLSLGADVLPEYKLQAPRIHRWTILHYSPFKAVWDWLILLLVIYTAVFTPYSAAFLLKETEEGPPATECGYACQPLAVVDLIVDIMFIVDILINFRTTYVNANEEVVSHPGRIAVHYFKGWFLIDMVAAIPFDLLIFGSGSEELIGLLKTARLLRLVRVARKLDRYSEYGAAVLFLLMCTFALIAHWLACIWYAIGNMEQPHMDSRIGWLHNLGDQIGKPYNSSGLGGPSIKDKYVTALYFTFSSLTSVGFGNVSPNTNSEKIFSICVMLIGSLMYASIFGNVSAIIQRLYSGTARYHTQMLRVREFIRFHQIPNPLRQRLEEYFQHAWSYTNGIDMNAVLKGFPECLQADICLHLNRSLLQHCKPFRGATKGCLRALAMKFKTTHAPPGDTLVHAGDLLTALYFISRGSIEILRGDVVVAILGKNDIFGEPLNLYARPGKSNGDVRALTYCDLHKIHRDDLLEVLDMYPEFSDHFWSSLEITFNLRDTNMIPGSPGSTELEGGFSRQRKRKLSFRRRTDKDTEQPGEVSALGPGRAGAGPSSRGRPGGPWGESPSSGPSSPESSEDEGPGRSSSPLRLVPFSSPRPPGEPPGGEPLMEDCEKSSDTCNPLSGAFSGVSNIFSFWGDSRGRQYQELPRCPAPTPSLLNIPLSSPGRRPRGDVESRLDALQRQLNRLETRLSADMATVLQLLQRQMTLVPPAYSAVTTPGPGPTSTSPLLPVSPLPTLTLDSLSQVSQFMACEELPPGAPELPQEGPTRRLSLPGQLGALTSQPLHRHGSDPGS", "assay": "primary screen, population patch clamp on CHO cells stably expressing hERG", "units": {"hERG current change (%, negative = inhibition) at 10uM": "%"}}
{"smiles": "COCCCNC(=O)Nc1ccc(Br)cc1Cl", "hERG current change (%, negative = inhibition) at 10uM": 1.18}
{"smiles": "CN(c1ccccc1C(=O)Nc1cccc([N+](=O)[O-])c1)S(=O)(=O)c1ccccc1", "hERG current change (%, negative = inhibition) at 10uM": -63.2}
{"smiles": "CCCCC(=O)Nc1nc(C)c(-c2csc(Nc3cc(OC)ccc3OC)n2)s1", "hERG current change (%, negative = inhibition) at 10uM": 5.95}
{"smiles": "CCCn1c2ccccc2c2cnn(CC(=O)N(CC)CC)c(=O)c21", "hERG current change (%, negative = inhibition) at 10uM": -2.37}
{"smiles": "Cc1ccc(C2(c3noc(CN(C)Cc4cnn(C)c4)n3)CCCC2)cc1", "hERG current change (%, negative = inhibition) at 10uM": 8.58}
{"smiles": "N#C/C(=C/c1ccc([N+](=O)[O-])cc1)C(N)=O", "hERG current change (%, negative = inhibition) at 10uM": 12.8}
{"smiles": "COc1ccc(OC/C(O)=C(\\C#N)c2nc3ccccc3[nH]2)cc1", "hERG current change (%, negative = inhibition) at 10uM": -0.578}
{"smiles": "CCCC[N+]12C3C[C@H](C4[C@H](O)[C@]5(C[C@@H]41)c1ccccc1N(C)[C@@H]35)[C@H](CC)[C@H]2O.[I-]", "note": "(some centres unmarked)", "hERG current change (%, negative = inhibition) at 10uM": -56.4}
{"smiles": "COc1ccc(C2C(C(C)=O)=C(O)C(=O)N2c2ccc(Br)cc2)cc1", "note": "(centres unmarked)", "hERG current change (%, negative = inhibition) at 10uM": 3.44}
{"smiles": "O=C(NCC1CCCN(C(=O)c2cccnc2)C1)c1ccc(-c2ccccc2)cc1", "note": "(centres unmarked)", "hERG current change (%, negative = inhibition) at 10uM": -26.8}
{"smiles": "CCOC(=O)c1ccccc1NS(=O)(=O)c1cnn(CC)c1C", "hERG current change (%, negative = inhibition) at 10uM": 6.25}
{"smiles": "Cn1nc(C(=O)OCC(=O)Nc2sccc2C(N)=O)c2ccccc2c1=O", "hERG current change (%, negative = inhibition) at 10uM": 0.397}
{"smiles": "COc1ccc(N2C(=NC(=O)C3CCCCC3)SC3CS(=O)(=O)CC32)cc1Cl", "note": "(centres unmarked)", "hERG current change (%, negative = inhibition) at 10uM": -20.9}
{"smiles": "CCOCCn1c(CN2CCN(C(c3ccccc3)c3ccccc3)CC2)nc2c1c(=O)n(C)c(=O)n2C", "hERG current change (%, negative = inhibition) at 10uM": -31.6}
{"smiles": "Cl.Nc1ncnc2nc[nH]c12", "hERG current change (%, negative = inhibition) at 10uM": 4.95}
{"smiles": "Cc1cccnc1NC(=O)c1ccc(S(=O)(=O)N2CCCCC2)cc1", "hERG current change (%, negative = inhibition) at 10uM": 12.8}
{"smiles": "CC(C)N1CCC(n2nccc2NC(=O)c2ccc3c(c2)OCO3)CC1", "hERG current change (%, negative = inhibition) at 10uM": 4.27}
{"smiles": "COc1ccccc1OCCN1CSC(=S)N(C)C1", "hERG current change (%, negative = inhibition) at 10uM": -25.7}
{"smiles": "CCOc1ccccc1NC(=O)c1cccc(S(=O)(=O)N(Cc2ccccc2)c2ccccc2OC)c1", "hERG current change (%, negative = inhibition) at 10uM": 10.5}
{"smiles": "COC(=O)C(=Nc1ccccc1)/C(C(=O)C(=O)N(C)c1ccccc1)=C(\\O)c1ccccc1", "hERG current change (%, negative = inhibition) at 10uM": 22.7}
{"smiles": "Cc1ccc(NC(=O)CCc2c(C)nn(-c3ccc(N4CCCCC4)nn3)c2C)cc1", "hERG current change (%, negative = inhibition) at 10uM": -1.15}
{"smiles": "CCN(CC)S(=O)(=O)c1ccc(Oc2ccc(S(=O)(=O)N(CC)CC)cc2)cc1", "hERG current change (%, negative = inhibition) at 10uM": -22.7}
{"smiles": "CC(CCc1ccccc1)NC(=O)CCN1N=C(c2ccccc2)CCC1=O", "note": "(centres unmarked)", "hERG current change (%, negative = inhibition) at 10uM": -27.6}
